Measurements taken from the RNAGym collection of RNA variant scans (doi:10.7554/elife.90254).
The source gives no read counts; variants with many changes may rest on few reads.

B1: OR4K15 (parent)
chain: GUUAACGGUCAUAGGCCAUGGAAACUAGGAGCACCAUUUCGCUGCCAGUGAAGAAAUGAACAAAGAAAAUCUGGGCCAGGCAGGCAUCAAAAGAAAUAGUCUUGCGCUCAACCAGAAAGUCUGUAAUCAUUUUAAGGGUA

Variants of: B1
Test: self-cleavage, relative activity (ratio to wild type); higher = more cleavage; in vitro, sequencing; the parent is a self-cleaving ribozyme
In the case of C32A A64U A68G A78C G79C, the self-cleavage is reported as 0.12. A33G G83A A96G showed a self-cleavage of 1.43. A30G A96G A116U U133C gave a self-cleavage of 0.21. In the case of A30G G84U A96G U132C, the self-cleavage is reported as 0.52. Work on A33U A91G A125U U132C yielded a self-cleavage of 1.99. In the case of A30G A96G A134U, the self-cleavage is reported as 1.79. Variant A33U A56G U120C has a self-cleavage of 0.6. A30G A62U A135U showed a self-cleavage of 1.27. In the case of A30U U103C U120C, the self-cleavage is reported as 0.25. In the case of A33G A92G U133C, the self-cleavage is reported as 1.73. For A30G C35U U133A, the self-cleavage was 0.96. A30G U103C A116G showed a self-cleavage of 0.4. Work on A33G U43C A59G A62U yielded a self-cleavage of 0.87. Variant C32U U43A A68G has a self-cleavage of 2.28. For G31A A89G A126G, the self-cleavage was 1.08. With C32U A59U A86G the self-cleavage was 1.9. Variant A33C A60G U102C A118G has a self-cleavage of 1.18. A33U C34G U87C gave a self-cleavage of 0.57. A33G A59G U100C showed a self-cleavage of 1.93. With A33G A64U A67G A82U the self-cleavage was 0.12. A30G G48A U97A U100C gave a self-cleavage of 2.12. In the case of G31A A86U A110U A114G, the self-cleavage is reported as 1.27. With A33C A96G U122C the self-cleavage was 0.22. Variant G31C A66G C76G A82G U132C has a self-cleavage of 0.06. A33G A96G A118G showed a self-cleavage of 0.09. A33G A59U A64U gave a self-cleavage of 0.71. For A33U U37C A60G, the self-cleavage was 0.73. With C32U U38C A129G the self-cleavage was 1.68. A33U A69G U72A A78U G79U U120C showed a self-cleavage of 0.15. For A33G U39C G75A A82G A96G, the self-cleavage was 0.04. Work on A33U U43C C76U A98U A135G yielded a self-cleavage of 0.05. In the case of C32U A96G A135U, the self-cleavage is reported as 0.62. G31A A63G A129U showed a self-cleavage of 1.22. Variant A33G A47G A91G U97C A98G has a self-cleavage of 0.75. Variant G31C U37C A69G has a self-cleavage of 1. G31A A91G A126G U132C showed a self-cleavage of 0.91. Work on A33G A54U U57C A117G A129G U130C yielded a self-cleavage of 1.25. With A33G U57C U100C A117G the self-cleavage was 1.73. With A33G A67G U102C U103C the self-cleavage was 0.08. A30G A55G A117G showed a self-cleavage of 1.38. A33C A63G A89G U124A gave a self-cleavage of 0.51. With A30G A92G U100C A116U the self-cleavage was 0.83. Variant A30G G73U A114U has a self-cleavage of 0.07. Variant A30U A47G U131C has a self-cleavage of 0.96. A30G A114G U130C showed a self-cleavage of 0.22. In the case of A33G A36G U43C C109U U122C, the self-cleavage is reported as 0.09. Variant A33G A117G G137A has a self-cleavage of 1.38. In the case of A33G A69G A126G, the self-cleavage is reported as 1.17. Work on A33G U37C A54U A140U yielded a self-cleavage of 0.81. In the case of A33G G44U G104A, the self-cleavage is reported as 0.02. A30G U131C G137A showed a self-cleavage of 0.91. In the case of A33G U49C A86G, the self-cleavage is reported as 0.65. In the case of A33U U38C A47G U57C U87A A94G A118G, the self-cleavage is reported as 0.27. A30G G65A U108C A114G showed a self-cleavage of 0. Variant A30G C34U A51C A55U A60U has a self-cleavage of 1.03. A30G A54G A86G gave a self-cleavage of 0.59. In the case of A30G U103A A126G U139C, the self-cleavage is reported as 0.58. For A30G A59G U131C, the self-cleavage was 2.15. Variant A30U C35A A111U A117G U131C has a self-cleavage of 0.09. Variant A30U A95G A117G has a self-cleavage of 2.35. A33U U49C U133C gave a self-cleavage of 1.89. With A33G U39C U72A A78U the self-cleavage was 0.14. Variant A30U A82U A92G U102C A117G has a self-cleavage of 0.26. Variant G31A G75C U87C has a self-cleavage of 0.22. A30U A90G A92G U120C A126G gave a self-cleavage of 0.25. A30U U43C A95G A116G showed a self-cleavage of 0.4. Variant A33U U43C A114C A116U A118U U124C has a self-cleavage of 0. A30G U57C A82G showed a self-cleavage of 0.34. A33C U39A C71A A94C gave a self-cleavage of 0.7. In the case of A33U A47G A118G, the self-cleavage is reported as 0.75. For A30G U49C G50C, the self-cleavage was 0.36. In the case of C32U A51G A90G, the self-cleavage is reported as 1.99. A30G A66G U139C showed a self-cleavage of 1.37. In the case of A33G U57A U97C, the self-cleavage is reported as 0.66. With A33G U102G A118G the self-cleavage was 0.04. With A33U A94G U120C U127C the self-cleavage was 0.56. With A30U A69G A82G the self-cleavage was 0.49. With A33G A62G A110G the self-cleavage was 0.21. With A30G A55G A92G A134U the self-cleavage was 0.97. A33G U49C A82G A98G gave a self-cleavage of 0. Work on A30U U37C A63G A91G A95G U108G A111G yielded a self-cleavage of 0.05. Work on A33U A36U A55G U131C yielded a self-cleavage of 2.3. Variant A33G U37C U87C A95G A110U has a self-cleavage of 0.44. For A33G A64G A94G, the self-cleavage was 1.02.
